In the supplement of paper PMC4967469:
The IC50 comes from the fitted curve, where viability falls to half of the control; a fit beyond the top or the lowest dose is shown as a bound at that dose. AUC sums up the same curve from the lowest dose to the 256-fold higher top dose: 1 means no effect, lower means more sensitive. Any top dose called inferred is not printed in the source and was worked back from the curve model. For some of these results: Drugs with an entry number were screened twice under separate entries, and the two screens often disagree.

How the values were obtained:
Test in all cases: Viability of human cancer cell lines after 72 h of drug (GDSC screen)
AZD6482 = compound: Cc1cc([C@@H](C)Nc2ccccc2C(=O)O)c2nc(N3CCOCC3)cc(=O)n2c1 [AZD6482]
Procedure: (§1)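 Human cancer cell lines in 384-well plates, medium with 10% serum, drug for 72 h over a 256-fold dose range (nine 2-fold or five 4-fold steps up to the top dose). Adherent lines were fixed and stained with the nucleic acid dye Syto60, suspension lines read with resazurin; signal relative to control wells, capped at 0 and 100%. One two-parameter sigmoid per drug and line, fitted in a mixed model over all curves with the slope shared within a line.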

BMN-673 = compound: Cn1ncnc1[C@H]1c2n[nH]c(=O)c3cc(F)cc(c23)N[C@@H]1c1ccc(F)cc1 [BMN-673]; details: top dose 10 µM; top dose inferred
Procedure: as §1

XMD11-85h = compound: COc1cc(C(=O)NC2CCN(C)CC2)ccc1Nc1ncc2c(n1)N(C1CCCC1)CCC(=O)N2C(C)C [XMD11-85h]; details: top dose 10 µM; top dose inferred
Procedure: as §1

MLN4924 = compound: NS(=O)(=O)OC[C@@H]1C[C@@H](n2ccc3c(N[C@H]4CCc5ccccc54)ncnc32)C[C@@H]1O [MLN4924]; details: top dose 1 µM; top dose inferred
Procedure: as §1

[1] = top dose 5 µM, screen: GDSC drug entry 1066, top dose inferred
[2] = top dose 5.12 µM, screen: GDSC drug entry 156

Cell Line	AUC (AZD6482; [1])	IC50 (AZD6482; [1])	AUC (AZD6482; [2])	IC50 (AZD6482; [2])	AUC (BMN-673)	IC50 (BMN-673)	AUC (XMD11-85h)	IC50 (XMD11-85h)	AUC (MLN4924)	IC50 (MLN4924)
RKN (ovary, adherent)	0.859	4.54 µM	0.943	> 5.12 µM	0.637	1.53 µM	0.978	> 10 µM	0.73	0.295 µM
RKO (large intestine, adherent)	0.842	3.15 µM	0.812	2.5 µM	0.816	5.03 µM	0.962	> 10 µM	0.475	0.0538 µM
RL (B-cell lymphoma, suspension)	0.983	> 5 µM	0.99	> 5.12 µM	0.989	> 10 µM	0.94	> 10 µM	0.989	> 1 µM
RO82-W-1 (thyroid, adherent)	0.859	> 5 µM	0.957	> 5.12 µM	0.853	> 10 µM	0.966	> 10 µM	0.942	> 1 µM
RPMI-8402 (T-cell lymphoblastic leukaemia, suspension)	0.94	> 5 µM	0.913	> 5.12 µM	0.585	1.02 µM	0.852	5.88 µM	0.862	0.642 µM
RPMI-8866 (chronic myeloid leukaemia, suspension)	0.615	0.631 µM	0.988	> 5.12 µM	0.94	> 10 µM	0.913	> 10 µM	0.625	0.135 µM
RS4-11 (leukaemia, suspension)	0.675	0.914 µM	0.624	0.682 µM	0.648	1.55 µM	0.891	9.92 µM	0.835	0.578 µM
RT4 (bladder, adherent)	0.987	> 5 µM	0.987	> 5.12 µM	0.781	4.39 µM	0.985	> 10 µM	0.891	> 1 µM
RXF393 (kidney, adherent)	0.711	1.57 µM	0.238	0.0404 µM	0.706	3.03 µM	0.975	> 10 µM	0.892	> 1 µM
SBC-1 (small cell lung carcinoma, suspension)	0.968	> 5 µM	0.956	> 5.12 µM	0.961	> 10 µM	0.796	4.5 µM	0.733	0.28 µM
SCC-4 (head and neck, adherent)	0.851	4.97 µM	0.939	> 5.12 µM	0.91	> 10 µM	0.982	> 10 µM	0.942	> 1 µM
SCC-15 (head and neck, adherent)	0.907	> 5 µM	0.886	> 5.12 µM	0.81	7.69 µM	0.925	> 10 µM	0.768	0.506 µM
SH-4 (melanoma, adherent)	0.967	> 5 µM	0.899	> 5.12 µM	0.739	4.52 µM	0.779	6.69 µM	0.777	0.658 µM
SHP-77 (small cell lung carcinoma, semi-adherent)	0.981	> 5 µM	0.991	> 5.12 µM	0.952	> 10 µM	0.987	> 10 µM	0.954	> 1 µM
SIMA (neuroblastoma, adherent)	0.985	> 5 µM	0.943	> 5.12 µM	0.527	0.748 µM	0.978	> 10 µM	0.884	> 1 µM
SJRH30 (rhabdomyosarcoma, adherent)			0.945	> 5.12 µM	0.511	0.67 µM	0.931	> 10 µM	0.83	0.654 µM
SK-CO-1 (large intestine, adherent)	0.986	> 5 µM	0.972	> 5.12 µM	0.195	0.083 µM	0.983	> 10 µM	0.877	0.904 µM
SK-GT-2 (stomach, adherent)	0.949	> 5 µM			0.862	9.3 µM	0.967	> 10 µM	0.794	0.488 µM
SK-LMS-1 (soft tissue, adherent)	0.631	0.703 µM	0.816	2.66 µM	0.809	4.92 µM	0.922	> 10 µM	0.692	0.209 µM
SK-LU-1 (lung adenocarcinoma, adherent)	0.875	> 5 µM	0.87	> 5.12 µM	0.656	1.91 µM	0.948	> 10 µM	0.882	> 1 µM
SK-MEL-1 (melanoma, suspension)	0.99	> 5 µM	0.991	> 5.12 µM	0.993	> 10 µM	0.993	> 10 µM	0.993	> 1 µM

Cell Line	AUC (AZD6482; [1])	IC50 (AZD6482; [1])	AUC (AZD6482; [2])	IC50 (AZD6482; [2])	AUC (BMN-673)	IC50 (BMN-673)	AUC (XMD11-85h)	IC50 (XMD11-85h)	AUC (MLN4924)	IC50 (MLN4924)
SK-MEL-2 (melanoma, adherent)	0.987	> 5 µM	0.98	> 5.12 µM	0.94	> 10 µM	0.878	> 10 µM	0.811	0.556 µM
SK-MEL-3 (melanoma, adherent)	0.941	> 5 µM	0.881	> 5.12 µM	0.855	> 10 µM	0.97	> 10 µM	0.924	> 1 µM
SK-MEL-30 (melanoma, adherent)			0.851	4.24 µM	0.882	> 10 µM	0.906	> 10 µM	0.91	> 1 µM
SK-MES-1 (lung squamous cell carcinoma, adherent)	0.841	3.92 µM	0.578	0.533 µM	0.832	7.21 µM	0.968	> 10 µM	0.933	> 1 µM
SK-PN-DW (Ewing sarcoma, adherent)	0.908	> 5 µM	0.882	> 5.12 µM	0.664	1.82 µM	0.976	> 10 µM	0.943	> 1 µM
SKM-1 (haematopoietic neoplasm, suspension)	0.629	0.738 µM			0.89	> 10 µM	0.9	> 10 µM	0.771	0.424 µM
SLVL (B-cell lymphoma, suspension)	0.937	> 5 µM	0.926	> 5.12 µM	0.883	> 10 µM	0.923	> 10 µM	0.939	> 1 µM
SNB75 (glioma, adherent)	0.962	> 5 µM	0.704	1.58 µM	0.849	> 10 µM	0.95	> 10 µM	0.928	> 1 µM
SNG-M (endometrium, adherent)	0.912	> 5 µM	0.949	> 5.12 µM	0.448	0.453 µM	0.789	4.33 µM	0.609	0.124 µM
SNU-81 (large intestine, adherent)	0.758	2.3 µM			0.98	> 10 µM	0.966	> 10 µM	0.88	> 1 µM
SNU-407 (large intestine, adherent)	0.852	4.91 µM			0.713	2.79 µM	0.933	> 10 µM	0.827	0.757 µM
SNU-C1 (large intestine, suspension)	0.902	> 5 µM	0.942	> 5.12 µM	0.961	> 10 µM	0.901	> 10 µM	0.97	> 1 µM
SNU-C5 (large intestine, adherent)	0.892	> 5 µM			0.784	4.71 µM	0.97	> 10 µM	0.818	0.636 µM
SR (lymphoid neoplasm, suspension)	0.863	3.63 µM	0.926	> 5.12 µM	0.819	4.95 µM	0.84	5.91 µM	0.789	0.394 µM
SU-DHL-8 (B-cell lymphoma, suspension)			0.913	> 5.12 µM	0.847	6.65 µM	0.967	> 10 µM	0.852	0.694 µM
SU-DHL-10 (B-cell lymphoma, suspension)	0.814	1.82 µM	0.205	0.0616 µM	0.998	> 10 µM	0.99	> 10 µM	0.998	> 1 µM
SW684 (fibrosarcoma, adherent)	0.87	> 5 µM	0.827	> 5.12 µM	0.931	> 10 µM	0.974	> 10 µM	0.966	> 1 µM
SW872 (soft tissue, adherent)	0.803	2.2 µM	0.884	4.6 µM	0.754	3.08 µM	0.924	> 10 µM	0.853	0.669 µM
SW982 (soft tissue, adherent)	0.777	2.07 µM	0.267	0.0675 µM	0.645	1.6 µM	0.923	> 10 µM	0.754	0.345 µM
SW1271 (small cell lung carcinoma, adherent)	0.974	> 5 µM	0.881	> 5.12 µM	0.828	7.46 µM	0.978	> 10 µM	0.796	0.549 µM
